# From the supplement of paper PMC11417369
# The other results are listed elsewhere or left out.
# Tested on: PF3D7_0420300 AP2 domain 1 (GST-tagged)
# Assay: gcPBM binding intensity (ln(normalized median fluorescence intensity)); higher = stronger DNA binding
# How it was run: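 Each value is the highest Masliner-normalised natural-log median intensity across replicate spots of either orientation of a probe. The probes were primer-extended double-stranded 36-bp intergenic genomic sequences on an Agilent 4 × 180k array, alongside negative controls, exposed for 1 h to GST-tagged P. falciparum DNA-binding domains expressed in E. coli. Bound protein was picked up with Alexa488 anti-GST antibody and scanned at 488 nm.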
row,Sequence,gcPBM binding intensity (ln)
1,AATAATATATGGTGTACACAAAAGTATAAATAATTT [CACACA_site5338],9.56
2,TATAAAAAAATAATAAATAAATAAAAAGATTTCTTT [TGCATGCA_negctrl_site122],8.51
3,AATAAATTAAAACAGGTGCACTATATTACACACGCT,9.53
4,TAGATACAGAAACACACACACACATACATATATACA [CACACA_site3437],10.2
5,AGAATTATTGTTAATGCATGTGGAAGTTAAAATATT [TGCATGCA_site188],9.33
6,TTATGGAGAGTTATATGTACGAAAAATATGTATAAG [XGTACX_site515],9.31
7,TATATAGTAATTTATTCACACAATTGGCACACCTCA [CACACA_site4679],9.42
8,TATTTAAATTGTAAGTGTACATATATAAATGTAAAA [XGTACX_site1609],8.98
9,TATAATATATATTTGTGTCCACAACATTTTTAATAT [XGTACX_site2089],9.08
10,AGCCATTATAATTCTTGTACATAATATAGCTATTTT [XGTACX_site1723],9.47
11,ACATATATATAATATATATTTTTCGTGTGGTGTCAC [CACACA_negctrl_site543],9.14
12,GAGCACCAAAATATATGTACATATGATAAATGTGAA [XGTACX_site1130],9.18
13,AATATATATATAGGATGTACACATAATTCAAATATA [XGTACX_site2755],9.4
14,ATCATTGAAGTTAAAAATATAAAGTATTCAGAAGGG [XGTACX_negctrl_site560],9.34
15,TTTTTTATTTTATTTTTTTCTGCTTATCCACATTAG [XGTACX_negctrl_site108],9.2
16,TCACTTTTATAATATAATATTCTATATCTTATTTTT [GTGCAC_negctrl_site717],9.41
17,TTGTGAATAACTAAGAAGAAAAAGATAAATATGTAT [TGCATGCA_negctrl_site388],9.19
18,TATTCATGCATATACACACACATATATTTATATTTT [CACACA_site7786],9.78
19,AATAATATTGAAATGTGTACGTATTTATATTTTATG [XGTACX_site8252],9.42
20,TTTTGTTATATTCAATATTTATATATTATAAATATA [CACACA_negctrl_site1705],9.11
21,TTTTTCTTTTTTACAGTGCATAAATATATGTATTGT [GTGCAC_site9399],9.31
22,TATATAATAACATATGCATGCAAGTAATATAACCAA [TGCATGCA_site324],9.51

row,Sequence,gcPBM binding intensity (ln)
1,TATAATATATATGTAACACACAAAAGTTATATACTT [CACACA_site2868],9.37
2,ATATATTATATTTAAGTGCATTAATTAAAATGCTTA [GTGCAC_site9403],8.88
3,CATTAATATATATATAGTACATATACACCTTCATTA [XGTACX_site8473],9.34
4,AAAAAAAATCAGACAGGTACACATTCCATGTTCAAA [XGTACX_site5380],9.32
5,TATGAAGTGCACAATACACACTAATTCTATATAAAT [CACACA_site7269],9.33
6,CAATTAAAAAATAATACATGCATATAAATAGATATT [TGCATGCA_site427],9.39
7,ATAATTAAATAAAAAAGTACACATACATCATAATGC [XGTACX_site7656],9.59
8,AAAATAAATATAAAATGTACTTATATATATATATAT [XGTACX_site7803],9.19
9,TAAGAATACGAAAGGTGTACACTGTGGAGACTTCAA [XGTACX_site2619],9.46
10,TTTACACTTTTTTTTGTACACACTAATAAGATTAAC [CACACA_site9304],9.42
11,ACATTACAATTATTATAATCAATATATAACCTCTAA [TGCATGCA_negctrl_site105],9.08
12,AAAAAAATTTTTAAAAGTACATTAATATTAATATGT [XGTACX_site5177],9.16
13,AAATATATTTTTTTTTGTACTCAAAAAGAAAAAAAA [XGTACX_site8540],8.7
14,ATAAAATTATATACTCGTACACAAAAAAAAAAAATA [XGTACX_site6035],9.38
15,AAAAATTGAATGATGTGTACTTAAAAGAATATAGAA [XGTACX_site6588],9.27
16,ATTATAAATAAAATATGTACATATGTATAAATACAT [XGTACX_site4002],9.21
17,AAAACACATACTATATGTACATATAATAATTTATAT [XGTACX_site4525],9.54
18,TTCTGTATATAGTGTGCACACAATTAAAAAAAAAAA [CACACA_site8400],9.48
19,AAGAAAAAAAAAAAAAAAAAAAAAAAAAAAAAAAAA [TGCATGCA_negctrl_site263],8.72
20,TTGCACTCGTAAAAAGCACACATATAAAAACATTTA [CACACA_site7997],9.18
21,TTAAAAATGTTATAATGTACATATAATATTTTATGA [XGTACX_site5954],8.79
22,TTTATCCTTCTTTTGAGTACTCAAAGAGACCTATAA [XGTACX_site8050],8.83

row,Sequence,gcPBM binding intensity (ln)
1,ATTATAAATATAAATATAAATATATATTGTTCCGCA [TGCATGCA_negctrl_site470],9.01
2,TATATATATATATATATATATATTTTTATTATATAT [XGTACX_negctrl_site89],8.86
3,GTTGTAAAAAGAAAATGTACGTAATAAATATATATA [XGTACX_site3081],9.33
4,AATACTCCATTGTATAGTACATATATTTTTATTTAT [XGTACX_site3641],9.33
5,AATAAAAAAAAAAATAATATATATGTATAAATATAT [CACACA_negctrl_site1561],9.31
6,TATTTTTATTTATATACACACTTACATATTTATATT [CACACA_site7666],9.56
7,AGAATTTATAAAAACTGTACATATTTTCCAGTTATA [XGTACX_site2848],9.15
8,TAATGTACTTAAACCGCACACATATAAAAAAATAAA [CACACA_site8926],9.25
9,TTATTTTAATTTTTGGTGCATATTCAAGTGTACCTT [GTGCAC_site9791],9.03
10,TTTTGTAAAATTAATTTATTATACATATATATTTCT [GTGCAC_negctrl_site728],9.2
11,TATTTACATATTTATATACACACTTTTGCGTGTCTG [CACACA_site1110],9.42
12,AAATAAAATACAATATGATAAAATGTTATCATATAT [CACACA_negctrl_site538],9.33
13,ATAAATAATATAAATACACACTAAAAAAGATATATA [CACACA_site6397],9.69
14,AATAAAAGGAATAATTGTACATAATGATTATACGTT [XGTACX_site7548],9.4
15,ATTATATTTCAATTATGTACATATAAAATGAATAAA [XGTACX_site4204],9.08
16,TTTTTTTTTTTTTTTTTTTTCTTCATTTAATTTATA [GTGCAC_negctrl_site17],8.31
17,AATTTTCATTTTAGAAGTACACACAAAAAATAAAAT [XGTACX_site4426],9.46
18,TTTTCATGTTTTTTTCTTTATTTTTTTTTTTTTTTT [GTGCAC_negctrl_site511],9.43
19,TTTTTTTATTATTATTGTACAAGGCCTTAGGTGATT [XGTACX_site5050],8.96
20,TACTTAATTATAAGGACATGCACAAAAGGAATTATT [TGCATGCA_site468],9.36
21,CATATTGTCATTCTGGTGCACTTTTTTTTTTTTTTT,9.52
22,ATATAATATAACAATACGCACACGTATACAAAAAAA [CACACA_site3151],9.5

row,Sequence,gcPBM binding intensity (ln)
1,AGGAAATGTTTATATACATGCATAATTAAATATAAT [TGCATGCA_site672],9.24
2,ATGTAATCATTTTCGACTTTTTTTTTTTTTTTTTTT [CACACA_negctrl_site1132],9.26
3,TTTTTAATTAATCTTATAAATATTTATAAATATATA [CACACA_negctrl_site1485],8.84
4,ATAAAATGCGCAAACACACACAAAAAAAAGATATAT [CACACA_site6875],10
5,TAAATATTATTTCATAGTACTTTTATTATTGATATA [XGTACX_site5566],9.18
6,TTTTGTAGTTTATAAATAAAAGAGAATATGGTGCTT [CACACA_negctrl_site413],9.22
7,TAAATAAATATATATACACACATATATATATATATA [CACACA_site598],9.21
8,CAATTTATAAAGAAAACACACATATACATATATACA [CACACA_site1260],9.58
9,TATTAAACAAATTATGCAAAAATAAATCAATATGTT [CACACA_negctrl_site171],9.42
10,ATTATTTTATAATTCACACATAAATAAAAAAAAAAT [CACACA_site5290],9.24
11,TTAGGAAGCTCACAAAATAAAGTGAAAAGAAGAAAA [XGTACX_negctrl_site572],9.1
12,TGATTTCCAGGTTATTGTACAAAATTAATTTTCGAA [XGTACX_site2491],8.99
13,AAAAGTTTTATTTAAATGAATTAATCTTTACTATAT [CACACA_negctrl_site282],9.07
14,TATAGATACATATACACACACACACCCACATATATA [CACACA_site3436],10.2
15,ATGTATGTGTAACATAGTACTTTTTAAAAGGATATT [XGTACX_site5328],9.15
16,TATTTTTTATAATAATGTACATATATATATATAATA [XGTACX_site2329],8.99
17,AATATCATATAAAAATGTACAAATTCTAAAACACGA [XGTACX_site1442],9.65
18,GTATTCATGCTAAAGGTGCAATAATTTTTATAATAA [GTGCAC_site9603],9.07
19,AAGATAAAATTATGTAGTACAAAAAAAAATAAAAAA [XGTACX_site139],9.41
20,ATCAAACCTTTTAAATGTACATTCGGAGTAAAAAAA [XGTACX_site282],8.99
21,TTAAAAATGTTGGAAAGTACATATTTTTTAAAAGTA [XGTACX_site802],8.85
